{"source": "PubChem BioAssay AID1347417", "about": "(National Center for Advancing Translational Sciences (NCATS), 2020)", "note": "Several values for one entry are separate records, joined by “and”; a condition that tells them apart may be missing. Identical values can stand only once. The whole screen tested about 120,000 compounds, of which about 5,300 (4.4%) were called active. The shares of active, inactive and inconclusive entries below differ from those in the screen. Calls follow the shape of the dose curve; as a rule, active = well fitted inhibition curve with a large enough effect; inconclusive = small, poorly fitted or top-dose-only effect; inactive = no such curve, though single readings can be large or run the other way. Potencies of inconclusive entries are doubtful fits and often do not repeat. Potency is read from the fitted curve at half-maximal effect; tags tell the direction and shape of the fitted curve."}
{"test": "qHTS Primary assay for Inhibitors of Plasmodium falciparum Dd2 growth in vitro; also: nearly all actives have a fitted effect of over 65% in size;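 as to activity, negative = inhibition: plate controls were DMSO vehicle for no effect and reference drug for full effect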", "details": "P. falciparum Dd2 growth, SYBR Green, 72 h; activity, negative = inhibition: at 28.9 µM (top of the series) unless noted; series mostly up to 28.9 µM", "in_short": "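Readout: SYBR Green fluorescence, 485 nm excitation, 535 nm emission, after ~16 h lysis at 37C. Before that, Dd2-infected red cells (2.5% hematocrit) grew 72 h with compound, 29 uM top final concentration.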"}
{"smiles": "O=C(c1ccccc1)N1CCC(c2nn(-c3ccc(Cl)cc3)c(=O)[nH]2)CC1", "Potency": "inconclusive: 20 µM [inhibitor, single point]"}
{"smiles": "CC(C)N1CCN(C2CCOC3(CCN(C(=O)Cc4cccc(F)c4)CC3)C2)CC1", "note": "(stereo unspecified)", "activity, negative = inhibition": "inactive: -22.6%"}
{"smiles": "CN(CCCNC(=O)CCC[C@H]1NC[C@@H]2C[C@H]1CN(Cc1ccccc1)C2)C1CCCCC1", "Potency": "inconclusive: 11.2 µM [inhibitor, single point]"}
{"smiles": "Cc1nn(-c2ccc(N3CCOCC3)nn2)c(C)c1CCC(=O)NCc1ccc(OC(C)C)cc1", "outcome": "inactive"}
{"smiles": "O=C(Cc1ccccc1Cl)N1CCN(c2cc(C(F)(F)F)ncn2)CC1", "Potency": "inconclusive: 2.51 µM [inhibitor, full curve, poor fit]"}
{"smiles": "O=C(Nc1nc2c(s1)CCC2)C1CC(=O)N(c2n[nH]c3cccc(F)c23)C1", "note": "(stereo unspecified)", "activity, negative = inhibition": "inactive: 2.33%"}
{"smiles": "CN(C)c1cccc(-c2cn(C)c(=O)n3cc(COc4ccnn4C)nc23)c1", "Potency": "inconclusive: 0.794 µM [inhibitor, partial curve, poor fit]"}
{"smiles": "CCc1nn(-c2ccc(F)cc2)c(Oc2ccccc2)c1CCC(=O)NCC1CCCO1", "note": "(stereo unspecified)", "Potency": "inconclusive: 6.31 µM [inhibitor, partial curve, poor fit]"}
{"smiles": "COc1ccc(-c2[nH]ncc2CN2CCCN(S(=O)(=O)c3ccccc3)CCC(=O)NCC2)cc1", "Potency": "inconclusive: 0.398 µM [inhibitor, full curve, poor fit]"}
{"smiles": "COc1ccc(C(=O)N(Cc2ccc(C(C)C)cc2)C2CCS(=O)(=O)C2)cc1", "note": "(stereo unspecified)", "Potency": "inconclusive: 12.6 µM [inhibitor, partial curve, poor fit]"}
{"smiles": "CCCn1ncc(CNC2CC(=O)N(Cc3ccccc3C(F)(F)F)C2)c1C", "note": "(stereo unspecified)", "Potency": "inconclusive: 11.2 µM [inhibitor, single point]"}
{"smiles": "O=C(c1ccc(C(F)(F)F)cc1)N1CCC2(C1)C(=O)N(CCc1ccccc1)c1ccccc12", "note": "(stereo unspecified)", "Potency": "inconclusive: 2.51 µM [inhibitor, full curve, poor fit] and inconclusive: 8.91 µM [inhibitor, partial curve, poor fit]"}
{"smiles": "CNCc1ccc(F)cc1", "Potency": "inconclusive: 10 µM [inhibitor, partial curve]"}
{"smiles": "CCOc1ccc(C(=O)N2CC(C(=O)NCCc3ccncc3)C3(CCOCC3)C2)cc1", "note": "(stereo unspecified)", "activity, negative = inhibition": "inactive: -2.11%"}
{"smiles": "O=C(Nc1cccc(-c2nnc3n2CCCC3)c1)c1cc(-c2ccccc2)n[nH]1", "Potency": "inconclusive: 1.78 µM [inhibitor, partial curve, poor fit]"}
{"smiles": "COc1ccc(NCc2cc3cc4c(cc3n(CC(=O)Nc3cc(C)cc(C)c3)c2=O)OCO4)cc1", "activity, negative = inhibition": "inactive: -5.93%"}
